# Measured values from publication PMC4457034.
# No constants are given. Whether binding was seen depends on the method and setting. In cells and extracts the contact can be indirect. Some entries that bind do so weakly or less than the wild type. For some of these results: Sequences can lack the tags named with a protein.
# T1: Porin, endogenous (Drosophila (endogenous in S2R+ cells and flies)) (UniProt Q94920)
# T1 sequence: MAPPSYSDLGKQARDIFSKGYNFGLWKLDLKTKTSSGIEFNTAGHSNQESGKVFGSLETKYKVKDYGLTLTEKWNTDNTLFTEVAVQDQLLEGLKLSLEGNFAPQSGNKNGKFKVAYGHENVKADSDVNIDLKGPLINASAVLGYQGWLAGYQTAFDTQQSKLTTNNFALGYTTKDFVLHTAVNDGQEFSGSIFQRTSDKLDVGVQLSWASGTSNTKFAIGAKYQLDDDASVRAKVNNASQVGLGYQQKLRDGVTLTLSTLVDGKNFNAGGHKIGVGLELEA
# T2: myc-tagged PINK1 (PTEN-induced putative kinase 1) (Drosophila) (UniProt Q0KHV6)
# T2 sequence: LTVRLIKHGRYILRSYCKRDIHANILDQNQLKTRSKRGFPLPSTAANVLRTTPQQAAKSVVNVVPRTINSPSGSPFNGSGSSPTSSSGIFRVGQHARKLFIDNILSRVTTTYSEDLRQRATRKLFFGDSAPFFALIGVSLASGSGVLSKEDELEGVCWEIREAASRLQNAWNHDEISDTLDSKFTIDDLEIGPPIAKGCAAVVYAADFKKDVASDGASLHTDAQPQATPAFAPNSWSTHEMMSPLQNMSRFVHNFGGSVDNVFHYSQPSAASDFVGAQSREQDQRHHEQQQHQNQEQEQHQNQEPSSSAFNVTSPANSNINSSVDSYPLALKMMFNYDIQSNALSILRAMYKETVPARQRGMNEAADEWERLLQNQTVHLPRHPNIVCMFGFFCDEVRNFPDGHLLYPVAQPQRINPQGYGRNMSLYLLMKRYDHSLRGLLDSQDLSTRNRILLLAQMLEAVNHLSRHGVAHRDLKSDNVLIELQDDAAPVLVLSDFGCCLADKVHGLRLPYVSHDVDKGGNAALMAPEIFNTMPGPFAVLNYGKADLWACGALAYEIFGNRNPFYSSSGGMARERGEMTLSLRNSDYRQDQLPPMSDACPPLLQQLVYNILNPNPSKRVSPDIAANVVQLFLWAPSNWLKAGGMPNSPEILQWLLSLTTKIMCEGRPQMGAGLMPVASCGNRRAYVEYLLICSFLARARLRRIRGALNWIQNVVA
# T3: myc-tagged Porin (Drosophila) (UniProt Q94920)
# T3 sequence: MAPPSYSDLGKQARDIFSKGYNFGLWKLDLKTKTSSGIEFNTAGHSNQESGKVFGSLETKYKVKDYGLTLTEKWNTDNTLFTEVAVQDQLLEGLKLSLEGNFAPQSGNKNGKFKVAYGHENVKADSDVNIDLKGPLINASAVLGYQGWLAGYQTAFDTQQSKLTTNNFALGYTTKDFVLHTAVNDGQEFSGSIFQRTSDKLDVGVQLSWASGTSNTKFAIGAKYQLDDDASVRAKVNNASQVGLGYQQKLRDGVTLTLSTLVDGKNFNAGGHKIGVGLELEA
# T4: myc-tagged Parkin (Park) (Drosophila) (UniProt Q7KTX7)
# T4 sequence: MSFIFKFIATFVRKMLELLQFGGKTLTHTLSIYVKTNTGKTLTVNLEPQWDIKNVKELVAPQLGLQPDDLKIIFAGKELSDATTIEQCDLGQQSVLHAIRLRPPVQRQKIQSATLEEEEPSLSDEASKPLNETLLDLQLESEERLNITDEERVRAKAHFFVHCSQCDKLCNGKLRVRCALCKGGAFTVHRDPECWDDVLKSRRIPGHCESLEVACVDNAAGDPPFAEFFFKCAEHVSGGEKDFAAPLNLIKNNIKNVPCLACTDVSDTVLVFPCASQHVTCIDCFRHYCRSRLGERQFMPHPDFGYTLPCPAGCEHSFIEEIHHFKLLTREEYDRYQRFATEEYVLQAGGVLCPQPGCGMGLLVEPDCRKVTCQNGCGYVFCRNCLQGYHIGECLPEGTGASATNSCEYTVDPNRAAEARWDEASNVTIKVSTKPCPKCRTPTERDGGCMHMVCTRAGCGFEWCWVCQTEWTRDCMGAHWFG
# Key:
# [1] = target: T1, Porin, endogenous (Drosophila (endogenous in S2R+ cells and flies)); assay: co-IP; endogenous proteins, fly extract; IP with commercial anti-TOM20 or anti-Porin antibody; rabbit and mouse IgG as controls
# [2] = target: T1, Porin, endogenous (Drosophila (endogenous in S2R+ cells and flies)); assay: co-IP; endogenous proteins, S2R+ extract; IP with commercial anti-TOM20 or anti-Porin antibody; rabbit and mouse IgG as controls
# [3] = target: T2, myc-tagged PINK1 (PTEN-induced putative kinase 1) (Drosophila); assay: co-IP; S2R+ extract, 1% Triton X-100 added to the IP buffer, extract spun at 135,000 g for 30 min (high-speed centrifugation co-IP)
# [4] = target: T3, myc-tagged Porin (Drosophila); assay: as above
# [5] = target: T4, myc-tagged Parkin (Park) (Drosophila); assay: co-IP; S2R+ cells transfected with myc-tagged Park and stressed with CCCP (10 µM, added after 36 h of transfection) or hydrogen peroxide
# [6] = target: T2, myc-tagged PINK1 (PTEN-induced putative kinase 1) (Drosophila); assay: co-IP; S2R+ cells transfected with myc-tagged proteins, normal culture conditions; reciprocal IPs (anti-Clu, anti-myc); IP buffer 20 mM HEPES pH 7.4, 50 mM KCl, 0.02% Triton X-100, 1% NP-40 (sub), 1 mM EDTA, 0.5 mM EGTA, 5% glycerol; extract spun at 12,000 g; 4°C overnight; Protein AG magnetic …
# [7] = target: T3, myc-tagged Porin (Drosophila); assay: as above
# [8] = target: T4, myc-tagged Parkin (Park) (Drosophila); assay: condition: only normal culture conditions, without CCCP or hydrogen peroxide; co-IP; S2R+ cells transfected with myc-tagged proteins, normal culture conditions; reciprocal IPs (anti-Clu, anti-myc); IP buffer 20 mM HEPES pH 7.4, 50 mM KCl, 0.02% Triton X-100, 1% NP-40 (sub), 1 mM EDTA, 0.5 mM EGTA, 5% glycerol; extract spun at 12,000 g; 4°C overnight; Protein AG magnetic …
# [9] = target: T2, myc-tagged PINK1 (PTEN-induced putative kinase 1) (Drosophila); assay: co-IP; S2R+ cells treated with clu RNAi, co-transfected with PINK1-myc and Park-FLAG; without CCCP
# [10] = target: T2, myc-tagged PINK1 (PTEN-induced putative kinase 1) (Drosophila); assay: condition: only control RNAi (endogenous Clu present), normal culture conditions; co-IP; S2R+ cells treated with control (luciferase) RNAi, co-transfected with PINK1-myc and Park-FLAG; normal culture conditions, endogenous Clu present
Binder,binding [1],binding [2],binding [3],binding [4],binding [5],binding [6],binding [7],binding [8],binding [9],binding [10]
"Clueless (Clu), endogenous (protein, UniProt A1ZAB5 1-1448) MALETEAKNSNATATGDATATATKASGKAKENNNTAGGKKNLNPNSNQQNSNQNLVNGNGTAADGPAAKKKGKKNRNKSPTEPTTEAVLSNGHAEKPTVVDAVEDNADTNANVEKPQEGGAPDAEADGDDIDLDALQDIGITVNISSPGADLLCVQLSSMELVQEIHQLLMDREETCHRTCFSLQLDNVTLDNFAELKSINNLEQGSTIKVVEEPYTMREARIHVRHVRDLLKNLDPADAYNGIDCTSLTYLNTITQGDLLDKKRTRPDSVDCTPPEYVTPGVSDPPILPLHPNVKNAKGPQALKVLTTSAWNPPPGPRKLHGDLMYLYVVTMEDKRFHISACSKGFFINQSTDDTFNPKPDNPSHLSHSLIDLLSHISPSFRRAFQTIQKRRTMRHAFERVATPYQVYQWAAPILEHTVDAIRAEDAFSSKLGYEEHIPGQTRDWNEELQTTRELPRKTLPERLLRERAIFKVHGDFVTAATRGAMAVIDGNVLAINPGEDTKMQMFIWNNIFFSMGFDVRDHYKELGGDAAAFVAPRYDLHGVRVYNAVDIEGLYTLGTVVVDYRGYRVTAQSIIPGILEREQEQSVVYGSIDFGKTVLSHPKYLELLRQAGKHLKILPHVVLNERDEPVELCSSVECKGIIGNDGRHYILDLLRTFPPDVNFLKLQDVQLSKELVDMGFPIEHRHKLCCLRQELLEAFIEDRHVNFIRIAAARLQQLTTIKQSEKSEANPVPALEGAEAASKVNGAEKPDDKEKKNEEEEKKERSTSGEARAAAIVNAIREAQSNVATSNEVQAAEVVKRACAAVGSLKEKEFDFRFNPDVFSPGIRHADGEEGTSLAKQKVLVQEAAEFLVLKQIPAFIKEHMSHSSSPIDGQSLTESLHSHGINVRYLGKVIKILSQMPRMDYLHRIAVLELIVRATKHIYYTYMQNTEPLHLSAAISHFLNCLLTNGPVNPAVSSEEAHKKRGNGGKHNKHKSSKGGKGQQQQQTTGNQNGSSSGSSNSSSASDWTLMTPRSLWQQIRKEAKVYWDWELDCDSIETAVSKYGILRISLMRAFCLKVGIQVLLREYNFESKHKPTFGDDDIVNVFPIVKHISPRATDAYNFYTTGQAKIQQGLFKEGYELISGALNLLNNVFGALHQENGSCLRMLARLSYLLGDAQDALAIQQRAVIMSERVNGMDHPSTILEYTHLSLYSFANGHVGMSLKLLYRARYLMVLICGEDHPEVALIDSNISLILHALGEYELSLRFIEHALKLNLKYFGDKDMHVALSYHLMARTQSCMGDFRSALNNEKETYSFYKSQLGENHEKTRDSAECLRLLTQQAVLLQRKMNDIYSSGKLTSDLPPIHITPPSMGSVLDMLNTINGILFVKISRKDIVKVRSEIEKHFKTDSTENEVNDAINSIVAAANNNGEAEDAVSKDIKEQPEAGKQLTNGDKAAATEATSS",binds,binds,binds,binds,binds,binds,binds,no binding,,
"FLAG-tagged Parkin (Park) (protein, UniProt Q7KTX7 1-482) MSFIFKFIATFVRKMLELLQFGGKTLTHTLSIYVKTNTGKTLTVNLEPQWDIKNVKELVAPQLGLQPDDLKIIFAGKELSDATTIEQCDLGQQSVLHAIRLRPPVQRQKIQSATLEEEEPSLSDEASKPLNETLLDLQLESEERLNITDEERVRAKAHFFVHCSQCDKLCNGKLRVRCALCKGGAFTVHRDPECWDDVLKSRRIPGHCESLEVACVDNAAGDPPFAEFFFKCAEHVSGGEKDFAAPLNLIKNNIKNVPCLACTDVSDTVLVFPCASQHVTCIDCFRHYCRSRLGERQFMPHPDFGYTLPCPAGCEHSFIEEIHHFKLLTREEYDRYQRFATEEYVLQAGGVLCPQPGCGMGLLVEPDCRKVTCQNGCGYVFCRNCLQGYHIGECLPEGTGASATNSCEYTVDPNRAAEARWDEASNVTIKVSTKPCPKCRTPTERDGGCMHMVCTRAGCGFEWCWVCQTEWTRDCMGAHWFG",,,,,,,,,binds,no binding
